Assay results taken from ChEMBL document CHEMBL4888484, “Replenishing the malaria drug discovery pipeline: Screening and hit evaluation of the MMV Hit Generation Library 1 (HGL1) against asexual blood stage Plasmodium falciparum ,using a nano luciferase reporter read-out” (2022).
Screen size: about 150,000 compounds; about 540 (0.36%) showed an effect of 50% or more. The list shows a part of the results.

These molecules were tested on Plasmodium falciparum (assay: Primary screen in NF54 nanoGlo assay, in single point, at 2uM, 72h; a lower Z score goes with more inhibition). Conditions: timepoint 72 hour.
Type: functional, Erythrocyte

Row | Structure (SMILES) | % Inhibition [%] | Z score
1 | CC(=O)NCCOc1cc(C)ccc1C | 30 | -3.35
2 | Cc1ccc(-c2cc(-c3ccccc3Cl)c3c(N)c(C(=O)Nc4ccc(Oc5ccccc5)cc4)sc3n2)cc1 | 5 | -0.57
3 | CC[C@H]1[C@@H](NC(=O)c2ccc(Cl)o2)[C@H]2CCO[C@H]21 | -14 | 2.22
4 | CN(CCC(=O)Nc1ccccc1Cl)Cc1ncccn1 | -33 | 3.91
5 | Cc1cnc(C)n1CCNC(=O)C1CCCC1 | -2 | 0.27
6 | COC1CC2C(=O)N(C3CCN(CC(F)(F)F)C3=O)C(=O)N2C1 (stereo not drawn) | -12 | 1.67
7 | COc1ccc(NC(=O)CCc2c(C)noc2C)c2nonc12 | -3 | 0.65
8 | O=C(CNC1CCCC1)Nc1ccccc1Cl | -9 | 1.4
9 | C[C@H]1OCCN[C@@H]1C(=O)N(C)CC1CC1 | -8 | 0.95
10 | O=C(c1ccco1)N1CC[C@H](Oc2cccc3cccnc23)C1 | -15 | 2.77
11 | CC(C)O[C@@H]1CCN(C(=O)Nc2ccn(C3CCCCC3)n2)C1 | -5 | 0.81
12 | CN(CC(=O)Nc1cccc(C(=O)O)c1)[C@H](c1ccccn1)C1CC1 | -9 | 1.24
13 | O=C(CN(C1CC1)S(=O)(=O)c1ccc(F)c(F)c1)NC1CC1 | -6 | 0.9
14 | CCCn1cc(NC(=O)N2CCOC(C)C2C)cn1 (stereo not drawn) | 0 | -0.05
15 | CC(C)(C)C(=O)Cn1c(=O)n(CC2CCC(C(=O)NC3CCCC3)CC2)c(=O)c2ccccc21 (stereo not drawn) | -8 | 1.19
16 | Cn1cc(OCC(=O)Nc2cc(Cl)cc(Br)c2O)cn1 | -5 | 0.88
17 | Cc1ccc(Cl)cc1N1CCN(C(=O)C2CCN(c3ccc(N4CCC(C)CC4)nn3)CC2)CC1 | -11 | 2.02
18 | CCCN(Cc1nnc(C2CCC2)o1)C1C2CCOC2C1(C)C (stereo not drawn) | -4 | 0.4
19 | CCn1ncnc1[C@H](C)NC(=O)Cn1nc(-c2ccccc2)n(CC)c1=O | 1 | -0.1
20 | Cn1cc(S(=O)(=O)NC[C@@](C)(O)CCc2ccccc2)cn1 | -7 | 1.16
21 | COCc1n[nH]c(NC(=O)CN2C(=O)c3ccccc3N3C(=O)c4ccccc4[C@H]23)n1 | -14 | 1.79
22 | Cc1ccc2c(c1)CCCN2C(=O)c1ccc2ccccc2n1 | -7 | 1.15
23 | CC1(C)CN(C(=O)CCn2cnnn2)CC[C@]1(C)O | -16 | 1.55
24 | COCCC(=O)N(C)c1ccc(Br)c(C)c1 | -16 | 1.49
